In patent US20020155518A1, “Method of detecting compounds that control fungal diseases via effects on sporulation” (priority 2000, published 2002) one finds Inactive, Moderately active and Active data, which are given here for 20 molecules.

The subject of this assay is Aspergillus nidulans. The assay is described as follows: Sporulation assay, paper disc diffusion on PDA seeded with spores. In kind it is cell-based, Aspergillus nidulans strain 003 (ATCC 36321). As to conditions: 20μg per disc, Yes/No; for Inactive: Inactive = discolored zone <10 mm including filter paper disc or completely absent; for Moderately active: Moderately active = discolored zone 10-14 mm in diameter including filter paper disc; for Active: Active = discolored zone ≧15 mm in diameter including filter paper disc.

For `C[C@@H]1[C@H](O)[C@@H](C)/C=C/C=C/C=C/C=C/C=C/C=C/C=C/[C@H](O[C@@H]2O[C@H](C)[C@@H](O)[C@H](N)[C@@H]2O)C[C@@H]2O[C@](O)(C[C@@H](O)C[C@@H](O)[C@H](O)CC[C@@H](O)C[C@@H](O)CC(=O)O[C@H]1C)C[C@H](O)[C@H]2C(=O)O` [Amphotericin B], the Inactive result is reported as “Yes” and the Moderately active result is on record as “No”.
On to `CO/C=C(/C(=O)OC)c1ccccc1Oc1cc(Oc2ccccc2C#N)ncn1` [Azoxystrobin], for which the Active result is given as “No”, the Inactive entry is given as “Yes” and the Moderately active entry is “No”.
Take `CCCCNC(=O)n1c(NC(=O)OC)nc2ccccc21` [Benomyl]: the Active entry is “No”, the Inactive result is listed as “Yes” and the Moderately active result was “No”.
As to `N#Cc1c(Cl)c(Cl)c(Cl)c(C#N)c1Cl` [Chlorothalonil], the Active entry was “No”, the Inactive result is given as “Yes” and the Moderately active result is “No”.
For `Nc1nc(=O)[nH]cc1F` [Compound 5-F-Cytosine, 5-F-Cytosine], the Active result is recorded as “No”, the Inactive result is listed as “Yes” and the Moderately active result is given as “No”.
`CCN(CC)CCO[C@H]1CC[C@@]2(C)C(=CC[C@@H]3[C@@H]2CC[C@]2(C)C(=O)CC[C@@H]32)C1` [Compound U-18666]: the Active entry is “No”, the Inactive result was “Yes” and the Moderately active entry is recorded as “No”.
`C[C@@H]1C[C@@H]([C@H](O)CC2CC(=O)NC(=O)C2)C(=O)[C@@H](C)C1` [Cycloheximide]: the Active result is on record as “No”, the Inactive result was “Yes” and the Moderately active result was “No”.
Take `CCOc1ccc(NC(=O)OC(C)C)cc1OCC` [Diethofencarb]: the Active result was “No”, the Inactive result is given as “Yes” and the Moderately active entry is “No”.
As for `OC(c1ccc(Cl)cc1)(c1cncnc1)c1ccccc1Cl` (stereo not shown) [Fenarimol], the Active entry is “No”, the Inactive result is reported as “Yes” and the Moderately active entry was “No”.
As for `CC(Cc1ccc(C(C)(C)C)cc1)CN1CCCCC1` (stereo not shown) [Fenpropidin], the Active entry is on record as “No”, the Inactive entry is given as “Yes” and the Moderately active result is “No”.
Take `C=CCOC(Cn1ccnc1)c1ccc(Cl)cc1Cl` (stereo not shown) [Imazalil]: the Active result was “No”, the Inactive result was “Yes” and the Moderately active result is given as “No”.
`CC(=O)N1CCN(c2ccc(OCC3COC(Cn4ccnc4)(c4ccc(Cl)cc4Cl)O3)cc2)CC1` (stereo not shown) [Ketoconazole]: the Inactive entry is “Yes” and the Moderately active entry is “No”.
For the molecule `COCC(=O)N(c1c(C)cccc1C)C(C)C(=O)OC` (stereo not shown) [Metalaxyl], the Active entry is reported as “No”, the Inactive result is “Yes” and the Moderately active entry is recorded as “No”.
Consider `CC1(C)CCC(Cc2ccc(Cl)cc2)C1(O)Cn1cncn1` (stereo not shown) [Metconazole], for which the Active entry was “No”, the Inactive result is “Yes” and the Moderately active result is “No”.
`NC(=O)OC[C@H](O)[C@@H](O)[C@H](N)C(=O)N[C@H](C(=O)O)[C@H]1O[C@@H](n2cc(C(=O)O)c(=O)[nH]c2=O)[C@H](O)[C@@H]1O` [Polyoxin D]: the Active entry is given as “No”, the Inactive result is on record as “Yes” and the Moderately active entry is “No”.
For the molecule `Cc1cc(C)nc(Nc2ccccc2)n1` [Pyrimethanil], the Active entry is “No”, the Inactive entry is listed as “Yes” and the Moderately active result was “No”.
In the case of `Fc1ccc(Oc2ccnc3cc(Cl)cc(Cl)c23)cc1` [Quinoxifen], the Active entry is listed as “No”, the Inactive entry is reported as “Yes” and the Moderately active result is “No”.
With `Cc1cccc(N(C)C(=S)Oc2ccc3ccccc3c2)c1` [Tolnaftate], the Active entry is listed as “No”, the Inactive result is “Yes” and the Moderately active result was “No”.
On to `CCCCCCCCCCCCCN1CC(C)OC(C)C1` (stereo not shown) [Tridemorph], for which the Active result is “No”, the Inactive result was “Yes” and the Moderately active entry is recorded as “No”.
In the case of `C=CC1(C)OC(=O)N(c2cc(Cl)cc(Cl)c2)C1=O` (stereo not shown) [Vinclozolin], the Active entry is listed as “No”, the Inactive result is “Yes” and the Moderately active entry is reported as “No”.
